According to publication PMC11524019 (Cell Communication and Signaling : CCS, 2024):

Target: Flag-human Sam68 purified protein (human, UniProt Q07666)
Assay: pull-down

Chain of UniProt Q07666 (Q07666 whole entry): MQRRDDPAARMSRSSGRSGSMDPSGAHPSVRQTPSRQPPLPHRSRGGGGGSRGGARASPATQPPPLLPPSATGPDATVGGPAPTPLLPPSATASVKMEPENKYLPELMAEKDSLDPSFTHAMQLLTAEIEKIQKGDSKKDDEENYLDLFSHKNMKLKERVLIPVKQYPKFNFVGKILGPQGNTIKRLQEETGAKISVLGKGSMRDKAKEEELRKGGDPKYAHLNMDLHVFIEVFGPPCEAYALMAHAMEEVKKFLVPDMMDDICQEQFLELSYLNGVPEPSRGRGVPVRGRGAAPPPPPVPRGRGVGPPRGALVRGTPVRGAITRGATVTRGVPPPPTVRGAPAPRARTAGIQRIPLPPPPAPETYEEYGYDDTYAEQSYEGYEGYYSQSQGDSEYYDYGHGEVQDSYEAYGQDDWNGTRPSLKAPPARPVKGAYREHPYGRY

B1: recombinant human IPMK purified protein (enzyme)
chain: not shown
binding result: binds
